Laboratory results reported in US6664269B2, “Isoquinolinone derivatives” (Maybridge plc, priority 2001, dated 2003).

Target: Mammalian PARP, isolated from Hela cell nuclear extract (Homo sapiens, UniProt P09874)
Experiment: PARP inhibition assay (FlashPlate, 3H-NAD incorporation)
Assay type: biochemical
Conditions: concentration at which 50% of the enzyme activity is inhibited; range normally 10 μM down to 0.01 μM; NAD 5 μM
Experimental: In order to assess the inhibitory action of the compounds, the following assay was used to determine IC50 values.
All compounds were diluted in DMSO and gave final assay concentrations of between 10 and 0.01 μM, with the DMSO being at a final concentration of 1% per well. The total assay volume per well was 40 μl.
After 10 minutes incubation at 30° C. the reactions were initiated by the addition of a 10 μl reaction mixture, containing NAD (5 μM), ^3H-NAD and 30mer double stranded DNA-oligos. Designated positive and negative reaction wells were done in combination with compound wells (unknowns) in order to calculate % enzyme activities. The plates were then shaken for 2 minutes and incubated at 30° C. for 45 minutes.
Following the incubation, the reactions were quenched by the addition of 50 μl 30% acetic acid to each well. The plates were then shaken for 1 hour at room temperature.
The plates were transferred to a TopCount NXT (TRADE MARK) (Packard, UK) for scintillation counting. Values recorded are counts per minute (cpm) following a 30 second counting of each well.
The % enzyme activity for each compound is then calculated using the following equation: [formula]
The results are detailed below as IC50 values (the concentration at which 50% of the enzyme activity is inhibited), which are determined over a range of different concentrations, normally from 10 μM down to 0.01 μM. Such IC50 values are used as comparative values to identify increased compound potencies.

Question: With `O=c1[nH]c(CCc2ccccc2)cc2ccccc12` [Compound 2, 3-(2-Phenylethyl)-1-isoquinolinone] as the compound, how does the IC50 read?
Answer: 0.58 µM

Question: For `COc1cccc(Cc2cc3ccccc3c(=O)[nH]2)c1` [Compound 4, 3-(3-Methoxybenzyl)-1-isoquinolinone], which IC50 is on record?
Answer: 8.5 µM

Question: `O=c1[nH]c(Cc2cccc(O)c2)cc2ccccc12` [Compound 7, 3-(3-hydroxybenzyl)isoquinolinone] was tested. Which IC50 did it give?
Answer: 1.8 µM
